Test results: the supplement of paper PMC11417369
± gives the standard deviation of the averaged measurements. This is one part of the list.

Each sequence was assayed on PfAP2-EXP AP2 domain (GST-tagged) (assay: gcPBM binding intensity (ln(normalized median fluorescence intensity)); higher = stronger DNA binding).
How it was run: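 Binding intensity values are the highest Masliner-normalised natural-log median intensity among replicate spots of either probe orientation. The binding step lasted 1 h in 1× PBS with 1% milk, 0.2 mg/ml BSA, 0.5% salmon testes DNA and 0.03% Triton X-100, using GST-tagged P. falciparum DNA-binding domains expressed in E. coli on an Agilent 4 × 180k array of primer-extended double-stranded 36-bp intergenic genomic probes plus negative controls. Alexa488 anti-GST antibody and a 488 nm scan detected bound protein.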

Sequence	gcPBM binding intensity (ln)
AAAAAAAAAAAAAAGACACACATATATATATATATA [CACACA_site633]	10 ± 0.31
AATATTACAAAATATTGTCCGTACAAATTTTTAATA [XGTACX_site8129]	8.31 ± 0.3
GATGATAAAATATGTACACACAGTTTATACATTTTG [CACACA_site4055]	8.37 ± 0.23
TCTGTTAATATTTATACACACATATTTATTTATATA [CACACA_site6658]	8.54 ± 0.33
ATTTTGAAAAATAAAAGTACATATAATATATCTACA [XGTACX_site7185]	8.1 ± 0.071
TTAACATATTATAAGTGTACATATTTATAAACAAGA [XGTACX_site8806]	8.62 ± 0.46
ATATACATATATATGGGTACATATATTAATATATAT [XGTACX_site8358]	8.48 ± 0.34
TTTAGATATATGGTAGTGCATAATAAAAATATAGCC [GTGCAC_site9449]	8.755 ± 0.064
CACTCCATATTATACACACACACAAATGAAAAAAAT [CACACA_site3019]	8.91 ± 0.37
TTAATAAACCTTAGATGTACAGTTATATATAAAATA [XGTACX_site6681]	8.54 ± 0.52
ATATATATATATATATGTACACATATATGTGTTTGT [XGTACX_site62]	10.1 ± 0.26
TGAACTCACGAGCACACACACACATATATATATATA [CACACA_site8248]	10.2 ± 0.34
ATACAATAAAGGTGTACACATATATGATGCAAGATG [CACACA_site5897]	9.21 ± 0.34
ATATATATTTTTTAATGTACTTATATTTTTATAATA [XGTACX_site2103]	8.47 ± 0.26
GGTCATATTTTTTGCACACAAAAAAAAATATAAAAT [CACACA_site3381]	8.47 ± 0.28
AATTAAACTCACACCACACACAAAAAAAAAAAAAAA [CACACA_site693]	8.29 ± 0.44
AGCAATTGTGTTTTCACACATAAATATATTCCTCAC [CACACA_site5021]	8.65 ± 0.43
AGTGTAGGTATATAAACACACATACAGATATATAAT [CACACA_site4900]	8.85 ± 0.41
GTATGTATGTATGTATGTACTTATGTAGTCTTAGTT [XGTACX_site1710]	9.24 ± 0.21

Sequence	gcPBM binding intensity (ln)
TATTCAGGTCCAATGGTGCAATATATTTTTGTAATA [GTGCAC_site9607]	8.93 ± 0.092
TAAAAAATAAAATGGACACACACGTTCAAATTTAGA [CACACA_site2083]	8.46 ± 0.42
AAGTTTATCACAGCCACGCACACATAATATATGTAT [CACACA_site3670]	8.66 ± 0.63
ATATATATATATAAAAGTACATGCTTATATATATAT [XGTACX_site3786]	9.86 ± 0.3
TTTAAAAATGCTACATGTACAAAATAAAATATAATA [XGTACX_site2905]	8.88 ± 0.48
TACAAAATATATATGACACACATAAAAAAAAGTATA [CACACA_site1373]	8.69 ± 0.4
ATTTTTTTTATTCAATGTACTTTTTTTTATATATAT [XGTACX_site4978]	8.77 ± 0.45
TATATAAACATACATACACACATACAATAAGTAAAA [CACACA_site5118]	8.94 ± 0.79
CACCCACTAATAAACACACACATATATATATATATA [CACACA_site389]	10.2 ± 0.35
AATAAAATGAGATGTTGTACAGTTTTGATATATGCA [XGTACX_site3052]	8.73 ± 0.35
ACCTAAGAACTATTTACACACATATACAAAATATAT [CACACA_site2459]	8.59 ± 0.47
ATTGTTCTATGATTTGTACACACTTTTTTTTAAAAT [CACACA_site2825]	9.35 ± 0.74
AATAAAAAACTACAATATACAAAATTATTAAATCAA [GTGCAC_negctrl_site703]	8.4 ± 0.39
CATATAAAAATATGCACACACAGGAATACAAACATA [CACACA_site684]	8.97 ± 0.28
AAACGTACATAATACACACACATGTATCCATATAAA [CACACA_site5173]	8.76 ± 0.41
ATTTATAATCAGGGTTGTACACTTATAGAATTTTTA [XGTACX_site4175]	8.33 ± 0.42
ATATAAATATATGGAAGTACACAAAAAAATTAAAAA [XGTACX_site8624]	8.83 ± 0.35
AATCTTCATACCAACACATGCACAAAAGAAATAAAA [TGCATGCA_site563]	9.32 ± 0.35
CATAAGAAAATAAAAACATGCACATAAGAAATATAC [TGCATGCA_site842]	9.39 ± 0.23

Sequence	gcPBM binding intensity (ln)
TATATTTATACATATTGTACATTTTATACTTTTACA [XGTACX_site3884]	8.65 ± 0.4
ATTATTAAAAAGATGTAAATAAATGAATATATGCTT [CACACA_negctrl_site539]	8.47 ± 0.39
ATATAGTATAATAAAAGTACATTTTGATTTTTTCTC [XGTACX_site1797]	8.28 ± 0.32
TTCTATATATTTTAATGTACATATATGATTATTCTT [XGTACX_site8294]	8.72 ± 0.33
TATTAAGAATTTACATGTACTTGTTAAATAAGAAAA [XGTACX_site4466]	8.8 ± 0.29
TAAATAATATCTATCACACACGCATATATACATATA [CACACA_site2622]	8.32 ± 0.44
GTCGCATTTTATACAAGTACACATGAATTATACAAC [XGTACX_site2200]	9.035 ± 0.021
TTCAAAAAAATGTATACACACATAAGTATAATATAA [CACACA_site3758]	8.53 ± 0.49
TGTTTATGTATCAATTGTACAAAAAAAAAAAAAAAA [XGTACX_site1590]	8.26 ± 0.46
GATTTTTTTTTTTTTTCACACACTAATAATATTATC [CACACA_site464]	8.62 ± 0.37
CTTATGTGCATACCTACACACTTACAGATATATATA [CACACA_site5622]	8.59 ± 0.33
TTCAAATATTTTATTTGTACATAAAAAAGAAAGTTA [XGTACX_site8287]	8.35 ± 0.2
TAGGAAGAATTACTGTGTACTAAAATATTAAAAAGT [XGTACX_site4909]	8.79 ± 0.22
ATAAATGAAAAAAAGCGTACATATAAAAAAATATAT [XGTACX_site5063]	8.63 ± 0.49
TGTAAATAATATAATAGTACGCATATTTTTATTGAA [XGTACX_site284]	8.46 ± 0.35
ACTTACCCATTTATTACACACATAAAGGAAAATTTT [CACACA_site4873]	8.89 ± 0.43
TTATTATCCTATATTTCTTTTCCTTCTTCAAAATTA [CACACA_negctrl_site1314]	8.64 ± 0.35
TACTATCTATACAATACACACAAAAAAAAAAAAATA [CACACA_site3981]	8.34 ± 0.52
TAAATACACTGTAGCGCACACGGCCAAAAAAAAAAA [CACACA_site1818]	8.79 ± 0.3
